# Data published in PMC4336329 (PLoS ONE, 2015).
# Screen size: about 310,000 compounds; about 14,000 (4.5%) showed an effect of 50% or more. Effects have a minus sign here. The list shows a part of the results.
# Molecular target: human ether-à-go-go-related gene (hERG) potassium channel (human, UniProt Q12809)
# Test: primary screen, population patch clamp on CHO cells stably expressing hERG
# 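Note: peak tail current of the secondary pulse compared with the same well before compound.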
# human ether-à-go-go-related gene (hERG) potassium channel, sequence (Q12809 whole entry, looked up): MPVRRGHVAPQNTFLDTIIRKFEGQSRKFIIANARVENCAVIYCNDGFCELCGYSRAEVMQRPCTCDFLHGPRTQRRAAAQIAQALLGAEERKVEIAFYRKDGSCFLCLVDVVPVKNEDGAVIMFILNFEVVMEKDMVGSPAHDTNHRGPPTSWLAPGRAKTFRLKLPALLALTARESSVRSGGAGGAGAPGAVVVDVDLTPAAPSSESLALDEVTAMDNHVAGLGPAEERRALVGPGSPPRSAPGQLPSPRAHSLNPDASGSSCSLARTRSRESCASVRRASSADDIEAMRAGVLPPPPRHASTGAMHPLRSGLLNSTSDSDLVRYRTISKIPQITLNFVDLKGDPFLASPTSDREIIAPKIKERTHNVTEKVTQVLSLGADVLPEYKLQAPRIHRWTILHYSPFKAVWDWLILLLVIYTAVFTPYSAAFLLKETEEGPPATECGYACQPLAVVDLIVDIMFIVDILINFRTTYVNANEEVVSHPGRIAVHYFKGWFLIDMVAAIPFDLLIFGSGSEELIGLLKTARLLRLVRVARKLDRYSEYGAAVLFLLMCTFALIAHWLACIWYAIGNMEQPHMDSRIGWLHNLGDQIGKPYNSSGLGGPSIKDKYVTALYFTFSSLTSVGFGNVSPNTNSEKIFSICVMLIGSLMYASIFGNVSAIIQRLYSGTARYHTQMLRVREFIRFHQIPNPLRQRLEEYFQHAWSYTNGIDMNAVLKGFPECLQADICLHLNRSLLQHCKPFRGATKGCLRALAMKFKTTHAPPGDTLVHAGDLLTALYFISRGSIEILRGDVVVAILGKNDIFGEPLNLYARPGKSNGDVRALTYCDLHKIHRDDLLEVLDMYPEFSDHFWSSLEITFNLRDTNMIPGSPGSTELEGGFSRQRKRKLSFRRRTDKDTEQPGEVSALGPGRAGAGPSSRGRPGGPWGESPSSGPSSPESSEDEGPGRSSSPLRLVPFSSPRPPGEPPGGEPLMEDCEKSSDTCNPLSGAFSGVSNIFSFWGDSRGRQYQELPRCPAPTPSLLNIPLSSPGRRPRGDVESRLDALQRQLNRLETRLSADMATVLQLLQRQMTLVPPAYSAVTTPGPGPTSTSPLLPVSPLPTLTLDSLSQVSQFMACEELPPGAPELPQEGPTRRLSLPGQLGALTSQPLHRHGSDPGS
row,Structure (SMILES),"hERG current change (%, negative = inhibition) at 10uM [%]"
1,COc1ccc(Br)cc1C(=O)Nc1cccc(NC(=O)c2ccco2)c1,-8.11
2,Cc1nc2c(c(C)nn2-c2ccccc2)c(C)c1CCC(=O)NCCCOC(C)C,-34.7
3,CC(C)(C)C1CCC(OC(=O)C[N+]2(C)CCCC2)CC1.[I-] (stereo not shown),27.1
4,Nc1c(C(=O)NC2CCCC2)c2nc3ccccc3nc2n1CC1CCCO1 (stereo not shown),-4.67
5,COc1ccc(NC(=O)c2cn(CCC#N)nc2-c2cc3ccccc3o2)cc1,-0.308
6,CCCc1cc(=O)oc2cc(OCc3ccc(OC)cc3)c(Cl)cc12,17.2
7,Cc1nn(Cc2ccc(C(=O)Nc3nc4c(C)cccc4s3)o2)c(C)c1Br,12.5
8,CCOC(=O)c1sc(NC(=O)Nc2ccc(F)cc2)nc1C,7.39
9,Cc1cc(C)cc(NC(=O)NCC(O)COc2ccc([N+](=O)[O-])cc2)c1 (stereo not shown),-42.3
10,COc1ccc(C(=O)NNC(=O)Nc2ccc(C)cc2)cc1,-14
11,CC1CCN(S(=O)(=O)c2ccc(NC(=O)[C@@H]3CCCC[C@@H]3C(=O)O)cc2)CC1,9.64
12,COC(=O)c1ccc(CN2CCN(CCCc3ccccc3)C(CCO)C2)cc1 (stereo not shown),-64.1
13,CC(C)(C)NC(=O)N1CCC(CO)(Cc2ccccc2Cl)CC1,-4.82
14,C/C(=N\NC1=NCCN1)c1ccccc1,1.62
15,Cc1c(CNCc2cccs2)c(C(=O)O)c(C)n1Cc1ccccc1,-31.3
16,O=C(CCCC(=O)Nc1ccccc1Br)N/N=C/c1c(F)cccc1Cl,-7.39
17,CCC(=O)N(C)CCc1cc2c(c(OC)c1/C=N/NC(=O)c1ccccc1O)OCO2,-6.4
18,Cc1ccc(NC(=O)COC(=O)C(NS(=O)(=O)c2ccc(Cl)cc2)C(C)O)c(Br)c1 (stereo not shown),-20.1
19,COc1ccccc1N1CCN(C2CC(=O)N(c3cccc(Br)c3)C2=O)CC1 (stereo not shown),-53.7
20,COc1cccc(NC(=O)CN(C)C(=O)c2c(C)nn(-c3ccccc3)c2Cl)c1,1.94
21,C=CCn1c(SCCOC)nc2c1c(=O)[nH]c(=O)n2C,2.01
22,CC1CCCCC12NC(=O)N(CC(=O)N1CCN(C(=O)c3ccco3)CC1)C2=O (stereo not shown),-4.27
23,CCC(C)[C@H](NC(=O)Nc1ccc(S(N)(=O)=O)cc1)C(=O)O (stereo partly shown),4.65
24,CCN(CC)C(=O)c1sc2[nH]c(=S)n(-c3ccccc3)c(=O)c2c1C,15.8
25,NC(=O)C1CCN(c2nc(-c3ccc4ccccc4c3)cs2)CC1,8.35
26,O=C(CN1C(=O)C2C3C=CC(C3)C2C1=O)N1CC(=O)N(CCc2ccccc2)C(=O)C1 (stereo not shown),10.2
27,OCCC1CN(CCCc2ccccc2)CCN1CCc1ccccc1 (stereo not shown),-77.2
28,CC(C)CN(C(=O)CSc1nncn1-c1ccccc1)c1c(N)n(CC(C)C)c(=O)[nH]c1=O,6.75

row,Structure (SMILES),"hERG current change (%, negative = inhibition) at 10uM [%]"
1,Cc1nn(-c2ccccc2)c(Cl)c1/C=C1\SC(=S)NC1=O,17.6
2,Cc1cccc2cc(C#N)c(SCC(=O)N3CCC(C)CC3)nc12,-6.48
3,O=C(NC(=S)N1CCN(c2ccc(Cl)cc2[N+](=O)[O-])CC1)c1ccco1,-68.4
4,O=C(COC(=O)C1CCN(C(=O)Nc2ccccc2)CC1)NCC(F)(F)F,17.7
5,O=c1cc(-c2ccc(O)c(-c3c(O)cc(O)c4c(=O)cc(-c5ccc(O)cc5)oc34)c2)oc2cc(O)cc(O)c12,-7.09
6,CCOc1ccccc1N1CCN(Cc2ccco2)CC1,-14.9
7,Cc1ccc(C2=NN3C(C(=O)c4ccccc4)Oc4ccccc4C3C2)cc1 (stereo not shown),0.487
8,COC(=O)C[C@H]1c2cc(C(F)(F)F)ccc2S(=O)(=O)N1Cc1ccccc1,-37
9,Cc1ccc(-c2sc(C(=O)NN)c(C)c2C#N)cc1,7.27
10,CS(=O)(=O)NCCOc1ccc(S(=O)(=O)NCCOc2ccccc2)cc1,12.3
11,O=C(CCc1ccccc1)N1CCN(Cc2ccc(F)cc2Cl)CC1,-24.2
12,CCCCCCN1C2=NCCN2c2ccccc21.Cl,-74
13,Cc1ccsc1-c1nc(CSCC(=O)NCCN2CCCC2)c(C)o1,-32
14,Cc1ccc(N(CC(=O)Nc2ccc(Br)c(C)c2)S(=O)(=O)c2c(C)[nH]c(=O)[nH]c2=O)cc1,17.6
15,CC1(C)CC2CC(C)(CN2C(=O)COC(=O)c2ccc(Cl)c(N)c2)C1 (stereo not shown),3.32
16,CCOc1ccc(S(=O)(=O)N2CCCCC2)cc1NC(=O)C1=COCCO1,-13.7
17,O=C(N[C@@H](Cc1ccc(O)cc1)C(=O)O)c1ccncc1,17.2
18,COc1ccc(CCN2C(=O)CC(C(C)c3ccccc3)C2=O)cc1OC (stereo not shown),-7.82
19,O=C(O)c1ccccc1-c1ccccc1C(=O)NCc1ccco1,13.4
20,O=C(Nc1ccc(N2CCOCC2)cc1N1CCOCC1)c1cccc([N+](=O)[O-])c1,-5.64
21,Cn1cnc(Sc2ncnc3nc[nH]c23)c1[N+](=O)[O-],17.5
22,COc1ccc(CC(=O)O/N=C(\N)Cc2cccc3ccccc23)cc1OC,8.17
23,O=C(NCCc1csc(-c2cccnc2)n1)c1ccccc1,12.4
24,CN(C)C(CNC(=O)CSc1nc2sc3c(c2c(=O)n1C)CCCC3)c1ccccc1 (stereo not shown),-16.6
25,Cn1nc(N)c2c(-c3ccc(Cl)cc3)c(C#N)c(N)nc21,-12.3
26,CC(C)(C)c1cc(C(=O)N/N=C/c2ccccc2O)n(-c2ccccc2)n1,-3.06
27,CCCOC(=O)C[N+](C)(C)CCOC1CC2CCC1(C)C2(C)C.[Br-] (stereo not shown),13
